Measured values: the RNAGym collection of RNA variant scans (doi:10.1093/nar/gkz1192)
Read counts are not given, so values of variants with three or more changes are uncertain.

B1: CPEB3 Ribozyme (parent)
chain: UAACAGGGGGCCACAGCAGAAGCGUUCACGUCGCAGCCCCUGUCAGAUUCUGGUGAAUCUGCGAAUUCUGCUGUAUAUCUC

Variants of: B1
Assay: self-cleavage, relative activity (ratio to wild type); higher = more cleavage; in vitro, sequencing
In short: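 After error-prone PCR and barcoding, CPEB3 ribozyme mutant libraries were transcribed with T7 RNA polymerase at 37°C for 5 hours, then given 15 min with DNase I before an EDTA stop, and they cleaved during both steps. Reverse transcription with template switching preceded Illumina sequencing. Relative activity divides a variant's cleaved/total read fraction by the unmutated ribozyme's. At least 5 reads were required per variant, and three batches were averaged.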

Variant | self-cleavage
G30C U41A U78C U80C | 0.23
U31A U51A U54C U69A | 0.29
G30U U41C U54G A64U | 0.14
U31A U51A A56G | 0.24
G30A G55A A65C U72C | 0.14
U31A A56U U60C | 0.13
U31A C34U U54C | 0.35
U31A A45G U78C C81U | 0.14
U31A A45U U66C | 0.09
U31A A35G C38U U58G C68U U74A A75G | 0.38
U31A U54A U67C U80C | 0.2
U31A A47G U67C | 0.24
G30U U41C A56G A77G U80G | 0.09
G30A U60C U69C | 0.07
G30A U60C U69G | 0.07
G30A A47G C59U U74A | 0.2
U31A U49C U66C A75U U78C | 0.08
G30A A56G A57G | 0.12
G30A U69C U72C | 0.32
C29U U48C U51A U67C | 0.34
C29U U43A U72C U80C | 0.94
C29U U67A G73U | 0.47
G30A U54A A56G | 0.11
U31A U51G A65G G73A U78C | 0.34

Variant | self-cleavage
U31A A35G U49C | 0.43
U31A A56G U72A | 0.51
C29U U48C U78C | 0.36
G30A U31C C37A C39A C62G | 0.04
U31A U43A A47G U51C U58G U60C | 0.12
G30A C40A G63C U69C | 0.11
G30A G33C U60G A77G | 0.12
G30A U41C A56G | 0.39
G30U U41C U43C A77U | 0.19
U31A A45G U60A | 0.26
G30C A56U U58A U69C | 0.13
G30A U41A U67C U69C | 0.07
U31A G33A C59U | 0.12
C29U U51A A56G | 0.18
G30A U69C U72A U80G | 0.08
U31A U43G U54C G61A | 0.12
G30C U66C U67C | 0.43
U31A A45G U49A U66C A77G | 0.18
C29U U49A U51C U72G | 0.42
G30U U41C U54G A64U A77U | 0.07
G30U U41C U54G A64U G70U | 0.11
C29U U54C A75U | 0.64
G30A U41C U51C U72A U80C | 0.09
U31A U48C A56U U72C | 0.16

Variant | self-cleavage
U31A C38U U60A U66A | 0.17
U31A A35U U41A G63A C71G | 0.06
G30A A64G U67C U74C | 0.07
C29U U41C A77G | 0.47
G30A U69A U78C | 0.21
U31A C44A U51A | 0.13
U31A A45G U76A | 0.32
U31A U54A A57G C68U U74C A75U | 0.46
G30A U31C U41C U54C | 0.19
G30U U43C A47G | 0.14
U31A U41C C68A | 0.19
C29U U43A A64U | 0.52
U31A C34U A56G | 0.1
U31A C34U A56U | 0.2
G30U U41C A45U | 0.14
G30A U43C A57G U66C | 0.11
U31A U54A A56G U72G | 0.56
G30A A35G U67A U69G | 0.14
U31A U41C G73A | 0.83
U31A A45U U54C G61U C62U A77C | 0.08
G30U G33U A35U U43A U49C U60A | 0.1
U31A A35G U54C | 1.23
G30C U43A U48A U80A | 0.18
G30A G52A A57G A64G | 0.19

Variant | self-cleavage
G30A A45U A56G A57G | 0
U31A A35G U54G U67C | 0.57
G30U U41C U43C U66C U69C | 0.06
U31A G52A U72C | 0.54
G30C G36C A45G | 0.06
G30U U41C U72A U78A | 0.11
G30A U49A G55C U76C | 0.14
G30U U41A C44A U60A U66C | 0.14
G30A G55U A65G | 0.07
C29U U41C U74C U78C | 0.77
C29U U43G U69A U72G | 0.17
G30U U66C U80C C81A | 0.11
C29U U41A A57G | 0.15
G30C U51C A64G U74C | 0.12
U31A U48C A65U U69A | 0.12
U31A U43C A56U U74C | 0.13
G30A U41C A57U U72A A75G | 0.06
U31A U51A A57G | 0.54
U31A A57G C71U | 0.35
U31A A45G A64G | 0.23
C29U U51C U60C U72C | 0.09
U31A A45C U54G U80C | 0.11
G30A U54C U67A | 0.22
U31A U41C U78C | 0.35

Variant | self-cleavage
G30C G53A A64U | 0.1
G30C U58C A65G U78C | 0.03
G30A A45C U78C | 0.06
U31A A57G A65U U69C | 0.16
U31A U58C A64G | 0.16
U31A A45G U54A U67C U69A U72C | 0.22
G30U U51G A65G U66C | 0.07
G30A A35U U74A | 0.16
G30C U60C U74C | 0.2
G30U A35C U41G U72C | 0.18
U31A A45U C81G | 0.25
C29U U41A U54G U58A U67A A77G | 0.06
C29U U41A U74A A75U | 0.24
U31A C40U U67C | 0.13
G30A U48A U51A U78C | 0.13
G30U A45G C68A U72C A75G U80C | 0.14
C29U U31A U67C | 0.11
U31A U43C U58A U69A U76C | 0.1
U31A C34U U41C U72A | 0.14
G30U U69C U80C | 0.07
G30A C62A U69C U78C | 0.12
U31A U58C U76C U78C | 0.23
U31A A47G A64G A75G | 0.22
G30U G53A U60C U66C A75U | 0.08

Variant | self-cleavage
G30A A35G U41A U51A | 0.16
U31A C32A U60A A77U | 0.09
U31A A35G U60G | 0.36
U31A U51C U60C | 0.21
C29U U41C A47G U58C A75G | 0.18
U31A A57G A65G | 0.41
G30C G42C U49A G52U C59A | 0.09
U31A A35U U58G | 0.13
U31A U54C U66C | 0.29
U31A G36A U76A | 0.35
G30A U31A C34U A56G | 0.08
U31A U43C U51A U72A A77U | 0.11
U31A A45G U48C U60C U69A | 0.2
G30A A45G U51A | 0.17
U31A A35U A75C | 0.2
U31A U60A U69C | 0.21
U31A A35G G42A U48C U51C U74A | 0.16
U31A C68U U72C | 0.46
G30A A64U A65U | 0.07
G30C A57G C62U | 0.04
C29U U58C U60A U69C U78A | 0.09
G30U U54C A57G U66C | 0.13
G30A U31C G36U | 0.17
C29U U49C U69C U80C | 0.13

Variant | self-cleavage
U31A A35G U72C | 1.24
G30A A45U U67C U72C | 0.07
G30U A35U U60A U72C | 0.06
G30C U31C U54A A57G A77G | 0.09
G30C U41A U51A A65G U69A | 0.17
U31A A35U C68U U69C U72C U74C | 0.12
G30C A65G G73A | 0.09
U31A C37U U41A G52U U58C U69G | 0.08
G30C A45U U72C | 0.19
U31A G61A A65G | 0.22
U31A G33A U58C A64G U69C | 0.09
G30A U41C A45C A47G | 0.08
U31A G42A A45G A47G | 0.21
G30U U41C U80A | 0.07
U31A C44G U67C | 0.05
U31A U54C U58A U72C U74A | 0.14
C29U U43C A47G | 0.29
C29U U66C U80C | 0.43
G30A C38U G52A C62U U76A | 0.07
U31A C40U U48C U54C C62A | 0.06
U31A A45G U51C | 0.15
G30A U49C A65G U69C | 0.05
U31A U49C U66C | 0.12
